Source: article PMC4199523
These are yes or no findings as the source states them, for the method shown. In cells and extracts the contact can be indirect. Some binding calls cover weakened binding; strength is not graded here. For some of these results: Sequences can lack the tags named with a protein.

Sequences of proteins named here, by UniProt entry; tags and fusion partners are left off.
UniProt D0EL35: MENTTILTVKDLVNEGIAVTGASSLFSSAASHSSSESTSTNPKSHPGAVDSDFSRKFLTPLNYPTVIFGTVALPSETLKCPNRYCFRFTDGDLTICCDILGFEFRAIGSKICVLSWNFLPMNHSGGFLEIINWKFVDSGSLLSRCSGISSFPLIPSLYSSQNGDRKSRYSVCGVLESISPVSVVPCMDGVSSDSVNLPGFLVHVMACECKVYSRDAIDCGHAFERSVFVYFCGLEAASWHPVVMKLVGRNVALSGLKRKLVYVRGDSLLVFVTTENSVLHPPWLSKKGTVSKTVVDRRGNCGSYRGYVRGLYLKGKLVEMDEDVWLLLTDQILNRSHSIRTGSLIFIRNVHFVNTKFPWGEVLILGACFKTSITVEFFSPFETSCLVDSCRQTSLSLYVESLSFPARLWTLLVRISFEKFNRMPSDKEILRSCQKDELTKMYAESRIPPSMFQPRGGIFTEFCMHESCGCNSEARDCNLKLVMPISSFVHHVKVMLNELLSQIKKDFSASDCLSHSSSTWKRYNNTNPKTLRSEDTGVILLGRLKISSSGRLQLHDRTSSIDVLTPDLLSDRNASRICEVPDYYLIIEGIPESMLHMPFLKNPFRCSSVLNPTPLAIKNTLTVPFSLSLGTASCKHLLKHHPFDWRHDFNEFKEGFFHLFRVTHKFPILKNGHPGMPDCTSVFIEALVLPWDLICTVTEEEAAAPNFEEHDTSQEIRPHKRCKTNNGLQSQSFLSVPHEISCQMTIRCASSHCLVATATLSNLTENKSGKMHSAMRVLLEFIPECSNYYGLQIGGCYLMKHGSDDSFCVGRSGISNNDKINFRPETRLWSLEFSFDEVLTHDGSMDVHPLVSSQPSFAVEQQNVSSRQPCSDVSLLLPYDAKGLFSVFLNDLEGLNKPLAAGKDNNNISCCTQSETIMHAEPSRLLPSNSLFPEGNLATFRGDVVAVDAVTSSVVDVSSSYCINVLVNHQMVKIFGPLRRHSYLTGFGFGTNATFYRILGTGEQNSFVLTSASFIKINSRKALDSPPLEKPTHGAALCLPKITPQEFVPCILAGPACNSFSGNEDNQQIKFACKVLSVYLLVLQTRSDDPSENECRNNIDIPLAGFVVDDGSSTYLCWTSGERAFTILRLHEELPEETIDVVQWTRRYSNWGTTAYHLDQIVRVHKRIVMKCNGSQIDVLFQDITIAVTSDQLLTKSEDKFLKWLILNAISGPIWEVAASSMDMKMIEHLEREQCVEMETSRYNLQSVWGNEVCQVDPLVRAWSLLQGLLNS

Legend:
[1] = biological target: transgenic CTC1-CFP protein (Arabidopsis thaliana) (UniProt D0EL35); assay: co-IP; IP of CTC1-CFP from transgenic Arabidopsis extract with anti-GFP antibody, protein-A agarose; western blot with anti-GFP and anti-POT1a antibodies; untransformed wild type tissue as negative control
[2] = biological target: T1, E. coli-expressed TEN1 (Arabidopsis thaliana) (UniProt Q6NME7); assay: co-IP; in vitro co-IP and competition: purified E. coli TEN1 (IP with purified TEN1 antibody and protein-A agarose) or purified E. coli POT1a OB1 (IP of POT1a) with RRL-expressed 35S-methionine labeled STN1; increasing POT1a OB1 or 50x BSA; 10 washes with buffer W300; coomassie stain and autoradiography; only the target purified
T1 sequence: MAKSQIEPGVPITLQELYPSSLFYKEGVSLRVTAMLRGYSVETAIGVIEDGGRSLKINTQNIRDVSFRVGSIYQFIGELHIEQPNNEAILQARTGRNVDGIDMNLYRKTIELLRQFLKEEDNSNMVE

[3] = biological target: T2, E. coli-expressed POT1a OB1 (first OB-fold of POT1a) (Arabidopsis thaliana) (UniProt Q56Y52); assay: as above
T2 sequence: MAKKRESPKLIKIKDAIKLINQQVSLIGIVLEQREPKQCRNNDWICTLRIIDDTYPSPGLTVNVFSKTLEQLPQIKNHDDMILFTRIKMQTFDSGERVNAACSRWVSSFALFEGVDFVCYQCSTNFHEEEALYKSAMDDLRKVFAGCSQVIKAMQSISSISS

[4] = biological target: T3, T7-tagged POT1a (Protection of Telomeres 1a), RRL-expressed (Arabidopsis thaliana) (UniProt Q56Y52); assay: co-IP; in vitro co-IP of RRL-expressed proteins: T7-tagged bait precipitated with T7 antibody-conjugated agarose beads, 35S-methionine labeled prey detected by autoradiography
T3 sequence: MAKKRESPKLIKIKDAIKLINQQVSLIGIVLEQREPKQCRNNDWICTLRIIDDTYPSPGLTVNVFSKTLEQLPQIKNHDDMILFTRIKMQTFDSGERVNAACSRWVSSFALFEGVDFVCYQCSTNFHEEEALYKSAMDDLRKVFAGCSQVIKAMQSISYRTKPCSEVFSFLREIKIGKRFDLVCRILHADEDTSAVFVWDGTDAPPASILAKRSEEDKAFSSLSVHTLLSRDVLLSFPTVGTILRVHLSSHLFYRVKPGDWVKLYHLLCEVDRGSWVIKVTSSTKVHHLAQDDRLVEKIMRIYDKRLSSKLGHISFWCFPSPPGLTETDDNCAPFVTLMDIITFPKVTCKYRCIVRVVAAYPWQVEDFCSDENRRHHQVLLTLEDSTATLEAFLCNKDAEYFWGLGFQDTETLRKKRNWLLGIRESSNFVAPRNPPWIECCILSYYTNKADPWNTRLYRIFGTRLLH

[5] = biological target: T4, T7-tagged TEN1, RRL-expressed (Arabidopsis thaliana) (UniProt Q6NME7); assay: as above
T4 sequence: T1 sequence

[6] = biological target: T5, TERT (telomerase catalytic subunit), endogenous in Arabidopsis seedlings (Arabidopsis thaliana (endogenous in seedlings)) (UniProt Q9SPU7); assay: co-IP; IP from wild type or pot1a Arabidopsis seedling extracts with affinity purified TERT, STN1 or TEN1 antibody, protein-A agarose, washes with buffers W300 and TMG; western blot
T5 sequence: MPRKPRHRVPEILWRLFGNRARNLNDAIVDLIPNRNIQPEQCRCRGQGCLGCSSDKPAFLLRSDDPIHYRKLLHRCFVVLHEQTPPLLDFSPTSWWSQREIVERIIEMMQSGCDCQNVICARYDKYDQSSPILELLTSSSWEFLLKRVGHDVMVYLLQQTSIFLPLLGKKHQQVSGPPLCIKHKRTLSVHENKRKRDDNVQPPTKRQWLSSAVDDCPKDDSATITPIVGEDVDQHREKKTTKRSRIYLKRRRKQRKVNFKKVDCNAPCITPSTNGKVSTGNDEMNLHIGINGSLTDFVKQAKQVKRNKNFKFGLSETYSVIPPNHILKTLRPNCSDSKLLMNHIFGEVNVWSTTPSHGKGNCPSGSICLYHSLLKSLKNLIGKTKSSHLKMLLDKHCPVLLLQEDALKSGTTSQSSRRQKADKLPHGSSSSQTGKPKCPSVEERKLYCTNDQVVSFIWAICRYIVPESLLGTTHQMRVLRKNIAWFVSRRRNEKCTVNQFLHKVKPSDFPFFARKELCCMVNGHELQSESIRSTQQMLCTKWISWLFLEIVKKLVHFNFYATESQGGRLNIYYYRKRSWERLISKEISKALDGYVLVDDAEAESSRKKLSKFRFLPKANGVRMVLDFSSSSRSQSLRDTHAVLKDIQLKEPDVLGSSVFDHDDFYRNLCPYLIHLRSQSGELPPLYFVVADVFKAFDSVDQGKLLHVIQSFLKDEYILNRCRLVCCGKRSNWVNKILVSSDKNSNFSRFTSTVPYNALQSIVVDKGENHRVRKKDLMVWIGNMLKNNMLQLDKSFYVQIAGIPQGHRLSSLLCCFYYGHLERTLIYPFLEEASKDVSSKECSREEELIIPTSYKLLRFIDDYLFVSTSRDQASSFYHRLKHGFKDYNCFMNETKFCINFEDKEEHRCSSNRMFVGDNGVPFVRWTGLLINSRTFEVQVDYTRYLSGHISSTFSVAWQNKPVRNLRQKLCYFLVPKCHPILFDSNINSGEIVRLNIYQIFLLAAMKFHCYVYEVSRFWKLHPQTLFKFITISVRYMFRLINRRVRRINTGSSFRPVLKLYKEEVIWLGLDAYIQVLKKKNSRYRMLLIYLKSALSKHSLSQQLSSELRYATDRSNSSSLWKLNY

[7] = biological target: T6, STN1, endogenous in Arabidopsis seedlings (Arabidopsis thaliana (endogenous in seedlings)) (UniProt Q9LMK5); assay: as above
T6 sequence: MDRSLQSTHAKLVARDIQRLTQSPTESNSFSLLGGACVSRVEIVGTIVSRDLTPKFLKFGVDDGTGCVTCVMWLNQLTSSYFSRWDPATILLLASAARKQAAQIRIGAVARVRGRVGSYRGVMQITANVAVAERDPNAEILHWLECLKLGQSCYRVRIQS

B1: POT1a, endogenous in Arabidopsis (protein, UniProt Q56Y52 1-467)
chain: T3 sequence
With B1 the binding [1] was “binds”.

B2: 35S-methionine labeled STN1, RRL-expressed (protein, UniProt Q9LMK5 1-160)
chain: T6 sequence
modifications: 35S-methionine labeled
For B2, the binding [2] was “binds”, the binding [3] was “binds” and the binding [4] was “binds”. For the same binder, the binding [5] was “binds”.

B3: STN1, endogenous in Arabidopsis seedlings (protein, UniProt Q9LMK5 1-160)
chain: T6 sequence
B3 was tested, and the binding [6] was “binds”.

B4: TERT (telomerase catalytic subunit), endogenous in Arabidopsis seedlings (enzyme, UniProt Q9SPU7 1-1123)
chain: T5 sequence
For B4, the binding [7] was “binds”.

B5: 35S-methionine labeled TEN1, RRL-expressed (protein, UniProt Q6NME7 1-127)
chain: T1 sequence
modifications: 35S-methionine labeled
For B5, the binding [4] was “no binding”.

B6: 35S-methionine labeled POT1a, RRL-expressed (protein, UniProt Q56Y52 1-467)
chain: T3 sequence
modifications: 35S-methionine labeled
For B6, the binding [5] was “no binding”.

B7: TEN1, endogenous in Arabidopsis seedlings (protein, UniProt Q6NME7 1-127)
chain: T1 sequence
With B7 the binding [6] was “no binding”.
